Test results published in a collection of fitness landscapes (doi:10.1016/j.celrep.2020.107928).
The full ranking holds about 81,000 sequences; the median of “one-hybrid fitness for binding parS DNA” is about -0.17, and the highest 2% start at about 0.51. The list shows a part of the results.

B1: Caulobacter ParB omega fusion; a variant is named by its letters at X, in order, B8GW30 (parent)
chain: MESVVVGEPGMSEGRRGLGRGLSALLGEVDAAPAQAPGEQLGGSREAPIEILQRNPDQPRRTFREEDLEDLSNSIREKGVLQPILVRPSPDTAGEYQIVAGERAWRAAQRAGLKTVPIMVRELDDLAVLEIGIIENVQRADLNVLEEALSYKVLMEKFERTQENIAQTIGKSXSHVANXMRLLXLPDEVQSYLVSGELTAXHARAIAAAADPVALAKQIIEGGLSVRETEALARKAPNLSAGKSKGGRPPRVKDTDTQALESDLSSVLGLDVSIDHRGSTGTLTITYATLEQLDDLCNRLTRGI

Variants of: B1
Assay: one-hybrid fitness for binding parS DNA (scaled: cognate 1, non-cognate 0); higher = stronger binding
Details: with parS DNA site
Summary of the method: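 Fitness here means the log change in variant-to-wild-type read ratio between plasmids sequenced before and after selection. That scale was set so cognate equals 1 and non-cognate equals 0. The selection was a bacterial one-hybrid screen of Caulobacter ParB libraries, four specificity codons randomised, in E. coli USO carrying a HIS3 reporter with the site 19 bp from the promoter, grown 48 hours at 37°C on M9-minus-histidine with 0.1 mM IPTG and 5 mM 3-AT.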

Variant | one-hybrid fitness for binding parS DNA
CDIT | ≤ 0.2
ATKG | ≤ 0.2
HLLH | ≤ 0.2
NPAT | ≤ 0.2
PANH | ≤ 0.2
VSAF | ≤ 0.2
QLDH | ≤ 0.2
ASEV | ≤ 0.2
RNPH | ≤ 0.2
THPA | ≤ 0.2
HFGS | ≤ 0.2
APGI | ≤ 0.2
SYTY | ≤ 0.2
IEVV | ≤ 0.2
PSCL | ≤ 0.2
VNCL | ≤ 0.2
AHEQ | ≤ 0.2
MKGR | ≤ 0.2
NHYT | ≤ 0.2
CGLC | ≤ 0.2
PPNA | ≤ 0.2
GYSF | ≤ 0.2
DIAG | ≤ 0.2
WDNC | ≤ 0.2
TNPA | ≤ 0.2

Variant | one-hybrid fitness for binding parS DNA
GPKS | ≤ 0.2
AFHT | ≤ 0.2
KNLT | ≤ 0.2
MFKE | ≤ 0.2
QNFG | ≤ 0.2
MITK | ≤ 0.2
KIFS | ≤ 0.2
EETS | ≤ 0.2
RSWQ | ≤ 0.2
LYEL | ≤ 0.2
AIFN | ≤ 0.2
IPRL | ≤ 0.2
LMRI | ≤ 0.2
FGAE | ≤ 0.2
VYVC | ≤ 0.2
NRRT | ≤ 0.2
DDLM | ≤ 0.2
CAQW | ≤ 0.2
KTCA | ≤ 0.2
NYGG | ≤ 0.2
DDLT | ≤ 0.2
SLDL | ≤ 0.2
NQHL | ≤ 0.2
PFYM | ≤ 0.2
WIFR | ≤ 0.2

Variant | one-hybrid fitness for binding parS DNA
VWNT | ≤ 0.2
QWLD | ≤ 0.2
KTLF | ≤ 0.2
KFTK | ≤ 0.2
TTAG | ≤ 0.2
MSKG | ≤ 0.2
PIPG | ≤ 0.2
KYDG | ≤ 0.2
HMGT | ≤ 0.2
NANT | ≤ 0.2
ELQT | ≤ 0.2
RNEA | 0.253
TTYY | ≤ 0.2
ICTY | ≤ 0.2
KRVD | ≤ 0.2
PFAL | ≤ 0.2
LTVC | ≤ 0.2
RQKR | ≤ 0.2
ARVT | ≤ 0.2
KRCG | ≤ 0.2
SVDS | ≤ 0.2
KHKS | ≤ 0.2
QHAN | ≤ 0.2
VASE | ≤ 0.2
TIQR | ≤ 0.2

Variant | one-hybrid fitness for binding parS DNA
CLQY | ≤ 0.2
RKIK | ≤ 0.2
LGKK | ≤ 0.2
NHER | ≤ 0.2
WKVT | ≤ 0.2
QHNY | ≤ 0.2
GPQG | ≤ 0.2
RMDW | ≤ 0.2
AVKR | ≤ 0.2
AQNT | ≤ 0.2
CLHG | ≤ 0.2
YGRG | ≤ 0.2
CDSD | ≤ 0.2
HGAE | ≤ 0.2
NSNG | ≤ 0.2
KCRV | ≤ 0.2
MLTC | ≤ 0.2
TMGW | ≤ 0.2
RCSQ | ≤ 0.2
TNAT | ≤ 0.2
RDTK | ≤ 0.2
YLPF | ≤ 0.2
LSFC | ≤ 0.2
